# In PubChem BioAssay (NCI):
# Several values for one entry are separate records, joined by “and”; a condition that tells them apart may be missing. Equal entries are not always repeated.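 1) Cells in 96-well plates. 2) Compound, 48 h, 5 concentrations. 3) Linear interpolation between surrounding doses. 4) Unreached endpoint = highest concentration. The concentration for 50% growth inhibition is given as GI50. The concentration for full growth arrest is given as TGI.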
# Tested on: NCI-H322M lung
# Experiment: growth of human tumour cells (NCI), 48 h
SMILES,TGI,GI50
C[C@@H](CC(O)C(O)C(C)(C)O)C1CCC23CC12CCC1[C@@]2(C)CCC(=O)C(C)(C)C2CC(OC2OC(CO)C(O)C(O)C2O)[C@]13C (stereo partly drawn),> 10 µM,–
Cc1ccc2c(=O)c3c(O)c4c(cc3n(C)c2c1)OC(C)(C)C=C4,> 10 µM,–
COc1cc(SC)ccc1C(=O)N1CCCC(C)C1 (stereo not drawn),> 100 µM,> 100 µM
CCOc1cc(C=Nc2ccc(Oc3ccc(Cl)cc3)c(Cl)c2)ccc1O,74.9 µM,–
O.O=[Se](=O)(O)O.[NH-]C1CCCCC1[NH-].[Pt+2] (stereo not drawn),> 100 µM,43 µM
C/C(=N\NC(=S)Nc1ccc([N+](=O)[O-])cc1S(=O)(=O)O)c1ccccn1,96.9 µM,–
NCCCN1CCN(CCCNc2ccc3ncn4c5ccccc5c(=O)c2c34)CC1,17.2 µM,–
NC(=O)c1ccc(-c2c3ccccc3cc3c2ccc2ccccc23)cc1,> 100 µM,7.59 µM
Brc1ccc2[nH]cc(-c3nc(-c4c[nH]c5ccncc45)cs3)c2c1,3.17 µM,1.75 µM
Fc1cc(Nc2ccc3c(OCCCN4CCOCC4)cccc3n2)ccc1Cl,8.09 µM,2.53 µM
O=C(Nc1ccc(-c2nc3ccc(NC(=O)c4ccc(Cl)cc4)cc3[nH]2)cc1)c1ccc(Cl)cc1,25.2 µM,9.1 µM
CCOc1ccc(N2C(N)=NC(N)=NC2(C)C)cc1,> 100 µM,> 100 µM
CCn1c2ccccc2c2cc(NC(=O)c3c(C)[nH]c(=O)[nH]c3=S)ccc21,> 100 µM,–
O=C(N/N=C\c1cc(Cl)ccc1O)N/N=C/c1cc(Cl)ccc1O,> 100 µM,8.1 µM
NC(Cc1ccccc1)C(=O)O (stereo not drawn),> 100 µM,–
CCCC/C(C)=N/NC(N)=S,> 100 µM,–
CC1(C)CN=C(c2ccc3ccccc3c2O)N1,> 100 µM,–
N#CC(C#N)=C/C=C/c1cccc([N+](=O)[O-])c1,12.5 µM,2.68 µM
Cc1ccc2c3ccc4c(c3n(C)c2c1)C(=O)C=CC4=O,> 10 µM,–
Nc1ncc(Cc2nn3c(COc4ccc(Cl)cc4)nnc3s2)s1,> 100 µM,–
Cn1cc(/C=C2\C(=O)Nc3cccnc32)c2ccccc21,> 25 µM,8.48 µM

SMILES,TGI,GI50
COc1ccc(CNc2cnc3cc(N)ccc3n2)cc1OC,> 100 µM,–
CC(Cl)CC(=O)Nc1ccc2c(c1)oc(=O)c1cc(NC(=O)CC(C)Cl)ccc12 (stereo not drawn),31.8 µM,7.02 µM
NC(=O)Cn1c(=O)[nH]c(=O)c2[nH]cnc21,> 100 µM,–
C[C@H]1CC(=O)[C@@]2(O)C#C/C=C\C#C[C@@H]3Nc4c(cc(O)c5c4C(=O)c4ccccc4C5=O)[C@]24O[C@]314,0.669 µM and 1.18 µM,0.119 µM
Cn1c(=O)c2[nH]cnc2n(C)c1=O,> 100 µM,–
O=C1CCCc2c(O)ccc(O)c21,> 100 µM,–
Cc1ccc(NC(=O)CCC(=O)C(C#N)c2ccc(Cl)cc2)cc1C (stereo not drawn),> 100 µM,–
C(=C1/CCCCC([n+]2ccccc2)=N1)/c1ccccc1,> 100 µM,–
COCCn1cc(-c2csc(-c3c[nH]c4ccc(F)cc34)n2)c2cccnc21,> 100 µM,> 100 µM
Cc1ccc(S(=O)(=O)ON=C2CC(c3ccccc3)N(C)C(c3ccccc3)C2)cc1 (stereo not drawn),49.4 µM and 49.8 µM,–
OCC1=C[C@@](COCc2ccccc2)(OCc2ccccc2)[C@@H](OCc2ccccc2)[C@@H]1OCc1ccccc1,> 100 µM,–
Cc1cc(C(C)(C)C)c(OCCCN2CCOCC2)c(C(C)(C)C)c1,32.5 µM,–
COc1ccc(/C=C(\C#N)c2nc(-c3cc4ccccc4oc3=O)cs2)cc1,> 100 µM,–
O=[N+]([O-])c1ccc(-c2nc3ccccc3o2)cc1,> 100 µM,–
Fc1ccccc1C1SCC2=Nc3ccccc3CN21 (stereo not drawn),> 100 µM,–
CCCCCCCCCCCOCCC1C(C(C)OCCN2CCCC2)OC2OC(C)(C)OC21 (stereo not drawn),10.1 µM,–
O=C(c1ccccc1)c1ccc2c(c1)N=C(c1ccc(Cl)c(Cl)c1)CC(c1ccc3ccccc3c1)N2 (stereo not drawn),> 100 µM,–
Clc1ccc(CCN2CCOCC2)c(Cl)c1,> 100 µM,–
C=C(Cl)C(=C)CCC(Cl)C(C)(C)Cl (stereo not drawn),> 100 µM,–
NC(=O)CN1CCN(c2nc(N3CCCC3)c3nc(Cl)c(NCc4ccccc4)nc3n2)CC1,34.8 µM,–
O=C(O)C1(Cc2ccc3c(c2)CCC3)Cc2cc3c(cc2C1)CCC3,> 100 µM,–

SMILES,TGI,GI50
CC(=O)OCC1OC(O[C@@H]2C[C@H]3C(C)(C)[C@H](OC(C)=O)CC[C@]3(C)[C@H]3CC[C@@H]4[C@]5(CC[C@@]4(C)[C@@]32C)O[C@@H]([C@H](O)C(C)(C)O)C[C@@H]5C)C(O)C(O)C1O (stereo partly drawn),3.39 µM,1.69 µM
CCCNC(=O)Cn1c(-c2ccccc2)cc2ccccc21,> 100 µM,–
O/N=C1/CCCCC1NO (stereo not drawn),> 100 µM,–
C=C1C[C@]23CC[C@@H]4C(CO)(CO)CC(=O)C[C@]4(C)[C@@H]2C(O)C[C@H]1C3 (stereo partly drawn),> 100 µM,–
CN(C)CCCN1C(=O)N(CCCN(C)C)c2c3cc(O)ccc3nc3c([N+](=O)[O-])ccc1c23,45.4 µM,–
Clc1cccc(C2SCc3nc4ccccc4n32)c1Cl (stereo not drawn),36.8 µM,–
CCn1c(-c2cc3ccccc3cc2OC(=O)c2ccccc2)n[nH]c1=S,> 50 µM,> 50 µM
Cc1cc(C#Cc2ccccc2)ccc1-n1c(/C=C/c2ccc(O)cc2)nc2ccccc2c1=O,> 100 µM,2.93 µM
C=C1C(=O)C23C(CC(OC(C)=O)C1[C@@H]2OC(C)=O)C1(C)C(OC(C)=O)CCC(C)(C)C1C[C@@H]3OC(C)=O (stereo partly drawn),3.14 µM,–
COC(=O)C1CC(C=O)=C(SC)N1 (stereo not drawn),> 50 µM,–
NC(=S)N1N=C(c2ccc3c(c2)CCC3)CC1c1ccccc1 (stereo not drawn),> 100 µM,–
CCCCCCCCCC[C@@H](O)[C@H]1CC[C@@H]([C@H]2CC[C@H]([C@H](O)CCCCCCCCCC[C@@H]3CC(CC(C)=O)C(=O)O3)O2)O1 (stereo partly drawn),> 100 µM,–
COc1cc(/C=C2\N=C(c3ccccc3)N(c3ccc(C(=O)c4ccccc4)cc3N3C(=O)/C(=C/c4cc(OC)c(OC)c(OC)c4)N=C3c3ccccc3)C2=O)cc(OC)c1OC,> 100 µM,–
CC1=C(C(=O)OC(C)C)C(c2cccc([N+](=O)[O-])c2)C(C(=O)OC(CO[N+](=O)[O-])CO[N+](=O)[O-])=C(C)N1 (stereo not drawn),> 100 µM,–
CC1=NN(C(=O)Cc2ccccc2)C(=O)/C1=C\c1cccc(O)c1,> 100 µM,–
Cn1c(=O)n2n(c1=O)C1C(=CC2)C2C=CC1n1c(=O)n(C)c(=O)n12 (stereo not drawn),> 100 µM,–
Nc1nc(Cl)cc(NCCCCCCCCCCNc2cc(Cl)nc(N)n2)n1,> 100 µM,–
COc1ccc(C2=C(N)c3ccccc3C2=O)cc1,> 100 µM,–
O=C(O)c1cc2c(cc1CC(Cc1ccccc1)C(=O)O)CCC2 (stereo not drawn),> 100 µM,–
C=CC(=O)N1C/C(=C\c2ccc(F)cc2)C(=O)/C(=C/c2ccc(F)cc2)C1,4.2 µM,–
CC1=C[C@H]2C[C@@]3(C)O[C@@H]([C@]4(C)CC[C@H]([C@@H](C)C(=O)O)OO4)CC3C(C)(C)[C@H]2CC1 (stereo partly drawn),3.9 µM,–

SMILES,TGI,GI50
COc1cc(/C=C/C=C2\CC(C)C/C(=C\C=C\c3ccc(O)c(OC)c3)C2=O)ccc1O (stereo not drawn),> 100 µM,–
CCOC(=O)C1C2C1C1C(C(=O)OCC)C21 (stereo not drawn),> 100 µM,–
Nc1ccccc1C#Cc1ccccc1C#CCCCCO,89.3 µM,25.3 µM
Cn1cnc([N+](=O)[O-])c1Sc1nncc2[nH]cnc12,> 100 µM,–
CC(=O)Oc1ccc(-c2c(OC(C)=O)c(OC(C)=O)c(-c3ccc(OC(C)=O)c(OC(C)=O)c3)c(OC(C)=O)c2OC(C)=O)cc1,62.9 µM,–
CC(=O)Nc1oc(C)nc1C#N,> 100 µM,–
C[Si](C)(C)[C@@]1([Se]c2ccccc2)CC[C@@H]1C(=O)c1ccccc1,> 100 µM,–
CNc1ccc([N+](=O)[O-])cc1C(=O)N1CCC[C@H]1CO,> 100 µM,–
Cc1cc(Br)cc(C)c1NC(=O)C(=O)C(C(=O)c1ccc(Cl)c(Cl)c1)C1OC(=O)c2ccccc21 (stereo not drawn),> 100 µM,–
ClCc1ccc(Cn2cnc3ncnc(Cl)c32)cc1,3.02 µM,1.64 µM
NC(=O)c1ccc(NC(=O)c2oc3ccccc3c2-c2cnn(-c3ccccc3)c2)cc1,> 100 µM,> 100 µM
CN(CCc1ccccn1)C(=S)N/N=C/c1ccccn1,35.6 µM,–
Cc1ccc(C)c2sc3cc(=O)ccc-3nc12,> 100 µM,–
COc1ccccc1OCC(O)CO (stereo not drawn),> 100 µM,> 100 µM
CCN(CC)c1ccc(/C=N\NC(=O)c2cccc(Nc3ccnc(C(F)(F)F)c3)c2)c(O)c1,> 100 µM,0.183 µM
Cc1cn(C2CC(O)C(Cn3cc(Cn4nc(Br)c(=O)[nH]c4=O)nn3)O2)c(=O)[nH]c1=O (stereo not drawn),> 100 µM,–
COc1cc(C(N)=O)c(OC)c(OC)c1OC,> 100 µM,–
O=C(NNc1ccc([N+](=O)[O-])cc1)C1OC(CO)C(O)C1O (stereo not drawn),> 100 µM,–
C[P+](C)(CC(F)(F)F)c1ccccc1,> 100 µM,–
